Results as given in the supplement of paper PMC3334620.
The full ranking holds about 33,000 sequences; the median of “E-score (-0.5 to 0.5)” is about -0.035, and the highest 2% start at about 0.35. The list shows a part of the results.

Molecular target: T1, Pdr3 (UniProt P33200)
T1 sequence: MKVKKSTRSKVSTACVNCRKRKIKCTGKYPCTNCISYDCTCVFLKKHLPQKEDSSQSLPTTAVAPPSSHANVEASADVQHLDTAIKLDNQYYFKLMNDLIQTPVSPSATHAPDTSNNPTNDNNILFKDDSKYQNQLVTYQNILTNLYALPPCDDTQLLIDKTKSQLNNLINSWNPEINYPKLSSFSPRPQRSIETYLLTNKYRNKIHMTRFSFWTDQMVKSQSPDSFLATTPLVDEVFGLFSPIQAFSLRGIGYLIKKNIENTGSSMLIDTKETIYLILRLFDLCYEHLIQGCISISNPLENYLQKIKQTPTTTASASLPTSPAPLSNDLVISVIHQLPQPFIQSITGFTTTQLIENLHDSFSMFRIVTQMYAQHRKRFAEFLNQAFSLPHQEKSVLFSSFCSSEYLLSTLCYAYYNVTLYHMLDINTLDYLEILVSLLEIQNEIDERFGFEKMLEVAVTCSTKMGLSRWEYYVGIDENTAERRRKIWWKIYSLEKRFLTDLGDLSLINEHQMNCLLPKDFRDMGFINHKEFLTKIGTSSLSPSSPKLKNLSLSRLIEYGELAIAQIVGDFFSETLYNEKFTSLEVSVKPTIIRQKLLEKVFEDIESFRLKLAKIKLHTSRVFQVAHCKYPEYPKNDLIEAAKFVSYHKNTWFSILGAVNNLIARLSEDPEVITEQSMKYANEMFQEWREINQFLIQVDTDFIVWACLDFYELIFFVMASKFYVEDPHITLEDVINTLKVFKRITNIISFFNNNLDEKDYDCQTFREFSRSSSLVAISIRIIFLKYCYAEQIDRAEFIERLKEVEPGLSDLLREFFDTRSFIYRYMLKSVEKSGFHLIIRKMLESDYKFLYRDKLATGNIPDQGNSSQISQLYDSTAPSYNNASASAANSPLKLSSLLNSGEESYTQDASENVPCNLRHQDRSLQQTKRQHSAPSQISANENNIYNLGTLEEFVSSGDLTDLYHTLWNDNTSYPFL
Test: PBM E-score (8-mer binding enrichment) (E-score (-0.5 to 0.5)); higher = stronger / more preferred TF binding; most listed sequences are background and not binding sites
Conditions: protein concentration: 200 nM; construct: GST-full length
How it was run: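 Universal all-10-mer Agilent arrays, fresh or stripped once, were converted to double-stranded form by primer extension. GST-tagged yeast transcription factors from PURExpress in vitro transcription/translation, full-length or DNA-binding domain only, were applied at about 100-200 nM and detected with fluorescent anti-GST. After masliner normalisation, the Universal PBM Analysis Suite scored each ungapped eight-base word together with its reverse complement by E-score.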

Sequence | PBM E-score
ATCGATTA | 0.0272
GCACTACA | -0.283
ACGTATCT | -0.128
CCAATGCC | 0.0068
GAAACCGC | 0.278
AATGTTGG | -0.0119
ATTTAACG | 0.0331
AAGGGCCT | -0.167
CGTAGCCC | -0.141
ACAGATTA | -0.204
AGGATGCC | -0.0876
AGTAGAAC | -0.289
ACCTTAGA | -0.126
AGAAGCTG | -0.0532
AGCATTCG | -0.083
ATCATAAC | 0.00954
GGATCTTA | 0.118
CTAGAAGC | -0.166
CCAGTAGA | -0.177
TATCCCGA | 0.305
CAGGTCTC | -0.332
CAAAAAGC | 0.0377
CGCGCGGC | 0.373
ATCTTAAC | -0.103

Sequence | PBM E-score
ATTGTCCA | -0.00495
AGGTTTAG | -0.336
AACAATTC | 0.0336
AGTATAAC | -0.279
CGGAGTCA | 0.26
CAGGGCCG | -0.0183
ATTGCTGC | 0.0872
CAACCCTC | -0.103
GGTTAACA | 0.123
CCCGGCTA | 0.201
CTATTAAA | 0.0349
CCTGGCAC | -0.122
AATTAGTG | 0.0606
GAATCCCA | 0.105
TCGTTCAA | -0.125
AGTGTAGG | -0.235
ACTCAAGT | -0.281
GGGCTACA | -0.149
TGCGGACA | 0.237
CACAGAGC | -0.149
AGATTTTG | -0.038
GACATAAC | 0.0732
CACCCGCA | 0.115
AACAACAT | -0.0801

Sequence | PBM E-score
GCGCTTAC | 0.0463
GGACCTCA | -0.0418
GCTTCAAA | -0.0867
ATGAGGGC | 0.027
AGAACATC | -0.1
AATGTGCG | 0.151
ACAAAGGC | -0.11
AACGTGCC | 0.0825
GGCACTGA | 0.0182
AGCTTCTG | 0.0299
CTAACTTC | -0.0626
CACGTGCA | -0.231
CTTAGCAA | -0.114
ACTGATTC | -0.0772
GAAATTCA | 0.136
AACCTATG | -0.285
CGGTAAGC | 0.0908
AGCTTAAA | -0.242
CCGCAAGC | 0.0626
GTCGCGAC | 0.38
CACCTCTA | -0.0528
CTGTTAAC | -0.00392
CCTTACCA | -0.318
CCAGCACC | -0.143

Sequence | PBM E-score
ACTTAAAG | -0.307
AATGTTAT | 0.00821
ACCACCCC | -0.102
CAGGGCCC | 0.0314
CGTATTTA | 0.164
AGGCTACA | -0.254
ACTCTCAA | -0.409
AAGGTTAG | -0.185
CGATCAGC | 0.115
GGCCAGTA | 0.0807
AGATCCCG | 0.4
CTACAATC | 0.109
CCGACAGG | 0.178
ATCGCGTG | 0.0667
CAATACAG | -0.0184
CTTTGGAA | -0.0819
CGGATATA | 0.346
CGCTGCTC | 0.0177
CCTTAATC | -0.0473
AAATTCGC | 0.0536
TAAACAAA | -0.159
CGGCTTGA | 0.148
